The list shows a part of the results. Values were computed here from the reads of four pooled replicates and scatter widely.

The assay concerns the target T1, Pho4 (S. cerevisiae) (UniProt P07270).
T1 sequence: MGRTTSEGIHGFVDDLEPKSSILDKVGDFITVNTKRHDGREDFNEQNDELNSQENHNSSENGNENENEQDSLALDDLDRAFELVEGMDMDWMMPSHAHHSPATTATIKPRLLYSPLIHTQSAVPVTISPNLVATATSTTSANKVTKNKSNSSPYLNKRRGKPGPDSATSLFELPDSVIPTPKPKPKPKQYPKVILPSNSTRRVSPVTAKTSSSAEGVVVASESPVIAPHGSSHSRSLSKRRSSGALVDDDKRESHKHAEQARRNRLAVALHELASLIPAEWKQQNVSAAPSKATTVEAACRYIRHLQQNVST
Kind of assay: relative binding free energy (BET-seq); higher = weaker binding. The following applies: reference: library average.
Regarding TGTGTCACGTGTAACG, the “relative binding free energy” value is 0.13 kcal/mol.

On to TGCGGCACGTGGCTAG, for which the “relative binding free energy” value is -0.1 kcal/mol.

On to TTTAGCACGTGGCGAG, for which the “relative binding free energy” value is -0.12 kcal/mol.

As for TTTTCCACGTGTATAT, the “relative binding free energy” value amounted to 0.08 kcal/mol.

Consider GTTTTCACGTGAAGGC, for which the “relative binding free energy” value was determined as 0.34 kcal/mol.

For CTTGTCACGTGGATAG, the “relative binding free energy” value is -0.01 kcal/mol.

GGTCACACGTGGGTGT: the “relative binding free energy” value was -0.05 kcal/mol.

Regarding AGAAACACGTGGTTTG, the “relative binding free energy” value was -0.01 kcal/mol.

For AGGTTCACGTGGGAAA, the “relative binding free energy” value came out at 0.19 kcal/mol.

With AGTGACACGTGTAATA, the “relative binding free energy” value was 0.08 kcal/mol.

As for AGCTGCACGTGGTGAT, the “relative binding free energy” value is -0.11 kcal/mol.

Consider TCTGACACGTGGTGAT, for which the “relative binding free energy” value is -0.03 kcal/mol.

As to TTATACACGTGAGGCG, the “relative binding free energy” value came out at 0.42 kcal/mol.

For AGGCCCACGTGTGGGT, the “relative binding free energy” value was -0.14 kcal/mol.

For TTGCGCACGTGGTTGT, the “relative binding free energy” value was -0.17 kcal/mol.

TGGGACACGTGAGTTG: the “relative binding free energy” value came out at 0.37 kcal/mol.

With TTTGCCACGTGGAGCT, the “relative binding free energy” value was 0.03 kcal/mol.

Regarding GTGCGCACGTGATGAG, the “relative binding free energy” value came to 0.13 kcal/mol.

In the case of CGGATCACGTGGGGCG, the “relative binding free energy” value came out at 0 kcal/mol.

Take GATTGCACGTGGTGTT: the “relative binding free energy” value is 0.15 kcal/mol.

As to GATGACACGTGCGTTT, the “relative binding free energy” value was -0.01 kcal/mol.

For AGGCGCACGTGTGTAA, the “relative binding free energy” value is -0.06 kcal/mol.

As to GTAGACACGTGTGTGG, the “relative binding free energy” value turned out to be 0.1 kcal/mol.

On to GAGCGCACGTGGGGCG, for which the “relative binding free energy” value is -0.35 kcal/mol.

In the case of GAGCCCACGTGGGGGT, the “relative binding free energy” value is -0.11 kcal/mol.

For TGGTGCACGTGAGGTA, the “relative binding free energy” value came out at 0.19 kcal/mol.

Take GGCATCACGTGTGGGA: the “relative binding free energy” value was found to be 0.13 kcal/mol.

Consider TATAGCACGTGTTGTC, for which the “relative binding free energy” value is -0.18 kcal/mol.

Take AATGACACGTGGTTTG: the “relative binding free energy” value is 0.01 kcal/mol.

TAGGTCACGTGGCATG: the “relative binding free energy” value is -0.06 kcal/mol.

For the sequence GGTTCCACGTGAGGGT, the “relative binding free energy” value was 0.31 kcal/mol.

As to TAGTGCACGTGCATTT, the “relative binding free energy” value was -0.17 kcal/mol.

For TGTGTCACGTGTCTGG, the “relative binding free energy” value worked out at 0.04 kcal/mol.

For the sequence TACATCACGTGGAGTT, the “relative binding free energy” value is 0.12 kcal/mol.

Take CGTGTCACGTGGCTTG: the “relative binding free energy” value was -0.02 kcal/mol.

For TTTATCACGTGGCCTT, the “relative binding free energy” value is 0.01 kcal/mol.

With TAGGCCACGTGGGGAC, the “relative binding free energy” value is -0.03 kcal/mol.

On to ATGTGCACGTGTGAAG, for which the “relative binding free energy” value was 0.07 kcal/mol.

Take ATCTGCACGTGTGAGG: the “relative binding free energy” value was -0.01 kcal/mol.

Regarding AACTGCACGTGGGCGG, the “relative binding free energy” value was -0.23 kcal/mol.

As to GTTGACACGTGCGAGG, the “relative binding free energy” value came out at 0.04 kcal/mol.

Regarding GAAATCACGTGGTTGG, the “relative binding free energy” value is 0.21 kcal/mol.

Consider TAGCGCACGTGGGTGC, for which the “relative binding free energy” value was -0.36 kcal/mol.

AAATACACGTGGGTTA: the “relative binding free energy” value is -0.15 kcal/mol.

As for TATTACACGTGGGACT, the “relative binding free energy” value amounted to 0.04 kcal/mol.

For the sequence TGGTTCACGTGGCATG, the “relative binding free energy” value stood at 0.29 kcal/mol.

Take TGTGTCACGTGCAGGT: the “relative binding free energy” value amounted to 0.01 kcal/mol.

Regarding AGGGTCACGTGCGGTC, the “relative binding free energy” value was 0.06 kcal/mol.

CGCGGCACGTGATGTG: the “relative binding free energy” value was -0.02 kcal/mol.

On to TGGCTCACGTGCGAGT, for which the “relative binding free energy” value turned out to be 0.13 kcal/mol.

On to TATGACACGTGGGTTC, for which the “relative binding free energy” value is -0.18 kcal/mol.

Take TGGGTCACGTGGCTAC: the “relative binding free energy” value is 0.09 kcal/mol.

Turning to TGCTGCACGTGGTACT, the “relative binding free energy” value was -0.1 kcal/mol.

Take TGATACACGTGGGGCA: the “relative binding free energy” value is -0.15 kcal/mol.

With TTTTGCACGTGGGCTC, the “relative binding free energy” value came out at 0 kcal/mol.

As for TAAATCACGTGAATAG, the “relative binding free energy” value turned out to be 0.45 kcal/mol.

For the sequence CGTAACACGTGGATGT, the “relative binding free energy” value is -0.06 kcal/mol.

Take GTGATCACGTGGGGTC: the “relative binding free energy” value was 0.03 kcal/mol.

For AGATTCACGTGAAGGG, the “relative binding free energy” value came to 0.32 kcal/mol.

On to GATAACACGTGCGTGG, for which the “relative binding free energy” value amounted to 0.03 kcal/mol.

For the sequence GTTGTCACGTGCTGCT, the “relative binding free energy” value is 0.08 kcal/mol.

Take GATAACACGTGTATGG: the “relative binding free energy” value turned out to be 0.08 kcal/mol.

Consider ATGTTCACGTGTTGAA, for which the “relative binding free energy” value turned out to be 0.23 kcal/mol.

As for GCGGGCACGTGGGAAG, the “relative binding free energy” value is -0.06 kcal/mol.

With GTTTTCACGTGTTCCG, the “relative binding free energy” value amounted to 0.33 kcal/mol.

Take GGTAGCACGTGTTGCG: the “relative binding free energy” value was -0.01 kcal/mol.

On to CCGTGCACGTGGGATT, for which the “relative binding free energy” value was -0.07 kcal/mol.

For GTTGGCACGTGTTTTT, the “relative binding free energy” value is 0.13 kcal/mol.

Take GTTTTCACGTGTACTT: the “relative binding free energy” value came to 0.41 kcal/mol.

With TGGCTCACGTGGGAAA, the “relative binding free energy” value stood at 0.27 kcal/mol.

With GAGTGCACGTGTACTT, the “relative binding free energy” value was determined as 0.06 kcal/mol.

GTAAACACGTGAGAGG: the “relative binding free energy” value was determined as 0.27 kcal/mol.

On to AAGATCACGTGGGGTG, for which the “relative binding free energy” value stood at 0.02 kcal/mol.

As for GGGGTCACGTGTGCCT, the “relative binding free energy” value was found to be 0.19 kcal/mol.

With GTGTACACGTGATGAA, the “relative binding free energy” value came to 0.23 kcal/mol.

As to TTGATCACGTGGAAGA, the “relative binding free energy” value turned out to be 0.37 kcal/mol.

As for GGATGCACGTGATGAT, the “relative binding free energy” value turned out to be 0.18 kcal/mol.

Regarding GCAGGCACGTGTGTTT, the “relative binding free energy” value turned out to be 0.01 kcal/mol.

Regarding ATAGGCACGTGATTGA, the “relative binding free energy” value worked out at 0.04 kcal/mol.

In the case of TATCGCACGTGTAGTG, the “relative binding free energy” value was -0.05 kcal/mol.

Take TTGCGCACGTGAGGCG: the “relative binding free energy” value is 0.21 kcal/mol.

For TATAGCACGTGTATGT, the “relative binding free energy” value is -0.09 kcal/mol.

With TCGGACACGTGGTAGG, the “relative binding free energy” value turned out to be 0.03 kcal/mol.

Consider TCGATCACGTGTTGTA, for which the “relative binding free energy” value was 0.1 kcal/mol.

For the sequence TTGGCCACGTGAGAAT, the “relative binding free energy” value is 0.27 kcal/mol.

Take GTTTGCACGTGAGGCG: the “relative binding free energy” value stood at 0.31 kcal/mol.

Turning to TGTACCACGTGGGCGT, the “relative binding free energy” value was -0.24 kcal/mol.

For the sequence GAGTGCACGTGAATTG, the “relative binding free energy” value was 0.29 kcal/mol.

As to TTACGCACGTGCGGTT, the “relative binding free energy” value is -0.12 kcal/mol.

AGTTGCACGTGGTTAT: the “relative binding free energy” value is -0.12 kcal/mol.

On to TTTTACACGTGTATAT, for which the “relative binding free energy” value worked out at 0.04 kcal/mol.

For TAATTCACGTGTAAAT, the “relative binding free energy” value was 0.39 kcal/mol.

In the case of GTTGGCACGTGACGGC, the “relative binding free energy” value was -0.03 kcal/mol.

GGTGTCACGTGATTCT: the “relative binding free energy” value was 0.29 kcal/mol.

AGGGTCACGTGACTTA: the “relative binding free energy” value was 0.15 kcal/mol.

Consider GTATCCACGTGGAGGT, for which the “relative binding free energy” value is -0.08 kcal/mol.

For TTATGCACGTGGAAGA, the “relative binding free energy” value is -0.12 kcal/mol.

In the case of GTGGACACGTGGGTTT, the “relative binding free energy” value was -0.02 kcal/mol.

Regarding TTTAGCACGTGGATGC, the “relative binding free energy” value was -0.12 kcal/mol.

On to GGTGGCACGTGGATCT, for which the “relative binding free energy” value worked out at 0.03 kcal/mol.

Regarding ATATACACGTGGGAGG, the “relative binding free energy” value is -0.18 kcal/mol.

In the case of AGTGGCACGTGCTTGC, the “relative binding free energy” value was -0.17 kcal/mol.

In the case of TTTATCACGTGGGGGT, the “relative binding free energy” value is -0.01 kcal/mol.

For AGGGGCACGTGTGGGC, the “relative binding free energy” value was -0.14 kcal/mol.

As for TTCGTCACGTGTGAGT, the “relative binding free energy” value was found to be 0.21 kcal/mol.

Take AGTGCCACGTGAGTTG: the “relative binding free energy” value is 0.04 kcal/mol.

On to TGTTTCACGTGTTACA, for which the “relative binding free energy” value was 0.12 kcal/mol.

For CAGGTCACGTGCATGG, the “relative binding free energy” value came out at 0.08 kcal/mol.

As for TTTGGCACGTGTACTA, the “relative binding free energy” value is -0.03 kcal/mol.

As for AGATGCACGTGTGTAG, the “relative binding free energy” value was -0.07 kcal/mol.

GTTCTCACGTGGAGTG: the “relative binding free energy” value worked out at 0.19 kcal/mol.

Regarding GGGCGCACGTGTTGAT, the “relative binding free energy” value was -0.15 kcal/mol.

As to GTCGGCACGTGTTGGT, the “relative binding free energy” value came to 0.03 kcal/mol.

As for GCGTGCACGTGAGCGT, the “relative binding free energy” value amounted to 0.27 kcal/mol.

As for GTGGGCACGTGGGCAA, the “relative binding free energy” value is -0.15 kcal/mol.
